# Values joined by “and” are separate entries in the source; they are usually repeats but may differ in a detail not shown here. Equal entries are not always repeated.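 All cell lines were grown in 96-well plates and treated with compound for 48 hours. At the GI50, growth is halved. TGI: total growth inhibition.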 Square brackets hold non-standard residues; d marks the D form. Peptide text beside a SMILES is read from it. 2Nal = N[CH](Cc1ccc2ccccc2c1)C(=O)O
# Tested on: NCI-H322M lung
# Assay: DTP human tumour cell line panel, 48 h
SMILES,TGI,GI50
CCC12C=CCN3CC[C@]4(C(=C(C(=O)OC)[C@@H]1Nc1ccn(C5OC(COC(C)=O)C(OC(C)=O)C5OC(C)=O)c(=O)n1)Nc1ccccc14)C32 (some centres not stated),10.2 µM,
N#Cc1cccc(Nc2nccc(-c3cnn4ncccc34)n2)c1,> 25 µM,0.00973 µM
O=C(O)/C(=C\c1ccccc1)Cc1ccccc1,> 100 µM,
Cc1ccnc2c1NC(=O)c1cccnc1N2C1CC1,> 100 µM,> 100 µM
CC(C)(C)OC(=O)C(C1NC(C(=O)O)C(C)(C)S1)N1C(=O)c2ccccc2C1=O (configuration not stated),> 100 µM,
NC(C(=O)O)C(N)C(=O)O (configuration not stated),> 100 µM,
CC(C)CCNC(=O)c1ccc(CNC(=O)/C=C/c2ccc(-c3ccccc3[N+](=O)[O-])o2)cc1,> 100 µM,
CC1=CC(C)C(O)C(C)/C=C/C(O)C/C=C(/C)C(=O)CC(O)C(C)\C=C/C=C/C=C\C(=O)NC2=C(O)c3cc(C)c(O)c(c3C(=O)C2=O)C1=O (configuration not stated),> 100 µM,
COC(=O)C1=NN2c3ccccc3CN([C@@H](C)c3ccccc3)C(=O)[C@@H]2C1,> 100 µM,
CSc1s[s+]c(SC)c1[O-],> 100 µM,
C=CCCCC1(C)CCCCNC1=O (configuration not stated),> 10 µM,
CNC(Cc1ccccc1)c1cccc(OC)c1O (configuration not stated),> 100 µM,
COC(=O)C1CCc2c(OC)ccc(OC)c2C1=O (configuration not stated),> 100 µM,
Cc1sc(N=Nc2c(O)[nH]c3ccccc23)nc1-c1ccccc1,42.8 µM,
Cc1cc(S(=O)(=O)Nc2nc(N)n(C)n2)c(S)cc1Cl,> 10 µM,
COC(=O)C(C(=O)C(=O)Nc1ccccc1OC)c1csc(-n2nc(-c3ccccc3)cc2-c2ccccc2)n1 (configuration not stated),> 100 µM,
CC(C)(C)OC(=O)C1/C(=C/CO)CN1C(=O)OC(C)(C)C (configuration not stated),> 100 µM,
COc1ccc(OC)c(C2CCc3cnc4nc(N)nc(N)c4c3C2)c1 (configuration not stated),> 100 µM,
COCCOC(C)C(/C=N/NC(N)=S)=N/NC(N)=S (configuration not stated),> 100 µM,
O=[N+]([O-])c1ccc2nc(N/N=C/c3ccc(O)cc3)sc2c1,> 100 µM,7.27 µM
O=C(Oc1ccc([N+](=O)[O-])cc1)N1CCC(C(O)(c2ccc3c(c2)OCO3)c2ccc3c(c2)OCO3)CC1,> 100 µM,> 100 µM
Cn1ncc2c(NCCc3ccccc3)nc(Cl)nc21,> 100 µM,
COc1cc(OC)c(/C=N/N=C(\N)NO)c(OC)c1,> 100 µM,
C=CC(=O)Nc1cc2c(Nc3ccc(OCc4ccccn4)c(Cl)c3)ncnc2cc1OCCN1CCOCC1,> 100 µM,0.386 µM
C=C1CC(OC)(C(O)C(=O)N[C@H]2OCO[C@H]3C2O[C@H](C[C@@H](CO)OC)C(C)(C)C3OC)O[C@H](C)[C@@H]1C (some centres not stated),< 0.00932 µM,

SMILES,TGI,GI50
c1ccc(C2CC(N3CCOCC3)=Nc3ccccc3N2)cc1 (configuration not stated),> 100 µM,
Clc1ccc2c(NCCNc3nc(-c4ccccc4)cc(-c4ccccc4)n3)ccnc2c1,3.27 µM,1.73 µM
O=C(O)[C@@H]1C[C@@H](O)CN1,> 100 µM,
CC(=O)Nc1ccc(/C=c2\sc3nnc(/C=C/c4ccccc4)n3c2=O)cc1,> 50 µM,
COc1ccc(-c2nc3ccc(C)cc3o2)c(OC)c1,> 84.6 µM,
CC(=O)OCCn1c(Cc2ccc([N+](=O)[O-])cc2)nn(C(C)=O)c1=O,> 100 µM,
O=C(Nc1ccc(-n2cc(-c3ccncc3)c(-c3ccc(Cl)c(O)c3)n2)cc1)c1cc(Cl)cc(Cl)c1,> 100 µM,> 100 µM
CC(C)(C)C1CCC2c3c([nH]c4ccccc34)C3C(=O)N(c4ccc(Br)cc4)C(=O)C3C2C1 (configuration not stated),> 100 µM,
COC(=O)C(Cc1ccccc1)NS(=O)(=O)c1ccc(-c2c3nc(c(-c4ccc(S(=O)(=O)NC(Cc5ccccc5)C(=O)OC)cc4)c4ccc([nH]4)c(-c4ccc(S(=O)(=O)NC(Cc5ccccc5)C(=O)OC)cc4)c4nc(c(-c5ccc(S(=O)(=O)NC(Cc6ccccc6)C(=O)OC)cc5)c5ccc2[nH]5)C=C4)C=C3)cc1 (configuration not stated),> 100 µM,
Cc1[nH]n(-c2ccccc2)c(=S)c1C(=O)c1ccccc1,> 100 µM,
COC(=O)/C(=C/N1CCN(C(=O)c2ccco2)C1=S)C(C)=O,33.8 µM,12.4 µM
Cc1ccc(C(=O)/C=C/c2ccccc2Cl)cc1,83.3 µM,
COC(=O)[C@]1(c2cc3ccccc3[nH]2)CC2CN(CC(=O)N(C)OC)C1C1OC(C)(C)OC21 (some centres not stated),> 100 µM,
CC(=O)O[C@H]1CCC2[C@@H]3CCC4C(=O)c5oncc5C[C@]4(C)C3CC[C@@]21C (some centres not stated),> 100 µM,
C[C@H](CCc1nc(C#N)c(N)o1)[C@H]1CC[C@H]2[C@@H]3[C@@H](O)CC4C[C@@H](O)CC[C@]4(C)[C@H]3C[C@@H](O)[C@]12C (some centres not stated),88.6 µM,
COc1ccc(/C=N/NC(=O)O)cc1,> 100 µM,
O=C(C#Cc1c[nH]c(=O)[nH]c1=O)c1ccccc1,28.7 µM,
COc1ccc2cc(C(=O)/C=C/c3ccc(OC)c(OC)c3)ccc2c1,78 µM,37.3 µM
Clc1ccc2c(NCCCN3CCN(c4nc(-n5ccnc5)nc5ccccc45)CC3)ccnc2c1,> 100 µM,> 100 µM
Nc1ccc(-c2ccc(-c3nc4ccccc4[nH]3)cc2)cc1,25.7 µM,
C[C@]12CC[C@H]3[C@@H](C[C@@H]4SC(Nc5cccc(F)c5)=N[C@@]45CC(=O)CC[C@]35C)[C@@H]1CCC2=O,28.9 µM,3.6 µM
CC(NC(=O)C(N)Cc1ccccc1)C(=O)NC(Cc1ccc(O)cc1)C(=O)NC(Cc1c[nH]c2ccccc12)C(=O)NC(CCCCN)C(=O)NC(C(=O)NC(C)C(=O)NC(Cc1ccc2ccccc2c1)C(N)=O)C(C)C (configuration not stated) (H-FAYWKVA[2Nal]-NH2; configuration not given here),> 12.5 µM and 48.7 µM,20.9 µM
CC(=O)Oc1ccc(-c2cc3ccccc3oc2=O)cc1OC(C)=O,> 100 µM,
CCC(=S)N(C)O,> 95.7 µM,
O=C1/C(=C\c2ccccc2)c2ccccc2N1Cc1ccccc1,16.6 µM,

SMILES,TGI,GI50
O=C1Nc2ccccc2SC1C1SC(=S)N(Cc2ccccc2)C1=O (configuration not stated),36 µM,15.1 µM
Nc1nc(Nc2ccc(Cl)cc2)sc1C(=O)c1cc2ccccc2oc1=O,> 100 µM,
CCCCNc1nc(SC)nc2nc[nH]c12,> 100 µM,
Fc1cccc(F)c1C1SCc2nc3ccccc3n21 (configuration not stated),> 100 µM,
O=C1c2cccc3c(N4CCN(c5ccc6c7c(cccc57)C(=O)N(CCN5CCNCC5)C6=O)CC4)ccc(c23)C(=O)N1CCN1CCNCC1,29.9 µM,14.1 µM
COc1cc(CNC(=O)CCCCCCCC/C=C/Br)ccc1O,> 10 µM,
O=C(Nc1cc(C(F)(F)F)ccc1Cl)C(=O)C(C(=O)c1ccc2ccccc2c1)C1OC(=O)c2ccccc21 (configuration not stated),18.5 µM,
CCN(CC)CC(C)(C)C(=O)/C=C/c1ccc(C)cc1,16.6 µM,
Nc1nc(Cl)cc(Nc2ccc3c(c2)CCC3)n1,> 100 µM,
Cc1cccc(NC(=O)CC2C(=O)Nc3ccccc3S2(=O)=O)c1C (configuration not stated),> 100 µM,
CNC(=O)OCc1nc(S(C)=O)n(C)c1COC(=O)NC (configuration not stated),> 100 µM,
COc1ccc2[nH]cc(/C=C3\C(=O)Nc4ccccc43)c2c1,66.5 µM,7.28 µM
CCC(C)(C)NC1=C(NC(C)=O)C(=O)c2ccccc2C1=O,> 75 µM,
Cc1cc(NC(=O)CCc2ccc(N3C(N)=NC(N)=NC3(C)C)cc2)ccc1S(=O)(=O)F,> 100 µM,30 µM
O=C(O)C1Cc2nc[nH]c2CN1 (configuration not stated),> 100 µM,
Nc1cc(C(F)F)c(-c2nc(N3[C@@H]4CC[C@H]3COC4)nc(N3[C@@H]4CC[C@H]3COC4)n2)cn1,> 100 µM,0.389 µM
C[n+]1c2ccccc2c(NC(CCC(N)=O)C(=O)O)c2ccccc21 (configuration not stated),> 100 µM,
CO[C@H](/C(C)=C/C=C/C(C)=C/c1coc(C)n1)[C@H](C)[C@H]1C[C@@H](O)[C@@]2(C)O[C@H]2/C=C/[C@@H](C)[C@@H]2C[C@@H](CC(=O)O2)C[C@H]2O[C@@H]2C(=O)O1,5 µM and 50 µM and 33.9 µM,
CC(C)OCN1COCN=C1NC#N,> 100 µM,
CCOC(=O)c1c(C)c2c(n1C)CSc1cc(S(=O)(=O)c3ccccc3)c(=O)[nH]c1-2,> 100 µM,21.9 µM
c1ccc(-c2cc(-c3cc(-c4ccccn4)[nH]n3)n[nH]2)nc1,> 100 µM,
N#Cc1ccc(-n2cnc(NC(=O)[C@H]3CCN(C#N)C3)c2)cc1,23.9 µM,2.21 µM
CNC(=O)N(CCC#N)CCN(CCN(C(=O)NC)c1ccccc1)C(=O)NC,> 100 µM,
C=C(C)C1CC[C@]2(C(=O)O)CCC3(C)[C@H](CCC4[C@@]5(C)CC[C@H](OC6OC(CO)C(O)C6OC6OC(C)C(O)C(O)C6O)[C@@](C)(CO)C5CC[C@]43C)C12 (some centres not stated),> 100 µM,
CC(NC1CCC[C@H]1O)c1ccccc1 (mixture of isomers),> 100 µM,

SMILES,TGI,GI50
CC1=CCC2(C#N)CCC1C2=O (configuration not stated),> 100 µM,
CCN(C)S(=O)(=O)Nc1cccc(Nc2ncnc3cc(NC(=O)CCl)ccc23)c1Cl,> 25 µM,9.6 µM
C=C1C(=O)C=C2C=C3C(=O)C(C)(C)C[C@]3(O)C12C (some centres not stated),35.7 µM,
CN1N=C(c2ccncc2)OC1c1ccc(Cl)c(Cl)c1 (configuration not stated),> 100 µM,
Cc1ccc(S(=O)(=O)n2ccn3c(=O)cc(C)nc23)cc1,> 10 µM,
Nc1nc(Cl)c2ncn(Cc3ccccc3CCl)c2n1,29.4 µM,
N#Cc1c(N2CCOCC2)ncn(-c2ccccc2)c1=O,> 100 µM,
COc1cc(C2C(C(=O)O)=C(C)Oc3cc4c(cc32)OCO4)cc(OC)c1OC (configuration not stated),> 100 µM,
CN(C)CC1(C)CC/C(=C\c2ccc3c(c2)OCO3)C1=O (configuration not stated),> 100 µM,
CS(=O)(=O)C(=Cc1ccccc1Cl)S(C)(=O)=O,> 100 µM,
C=C1CC2(OC1=O)c1ccccc1CCc1ccccc12,30.1 µM,
O=S(=O)(Nc1ccccc1S(=O)(=O)c1ccccc1)c1ccccc1,> 100 µM,
O=c1cccc(C#CCCCCOC2CCCO2)o1 (configuration not stated),33.8 µM,12.5 µM
Nc1nc(N)c(-c2ccccc2)c(C(=O)Nc2ccc(Cl)c(Cl)c2)n1,> 100 µM,
O=C(O)/C(O)=C1/C=C(c2ccccc2)c2ccccc21,78.3 µM,
O=C(N/N=C/c1cc2ccccc2c2ccccc12)c1cc(O)c(O)c(O)c1,19.9 µM,5.46 µM
CCOc1ccc(N=Cc2cc(OC)c(OC)c(OC)c2)cc1,> 100 µM,
O=[N+]([O-])c1ccc(N(CCO)CCO)c2c1no[n+]2[O-],10.7 µM,2.39 µM
Cc1c2n(c3ccccc13)CC1C2N(C)OC1(C)C (configuration not stated),> 100 µM,
NC1=C(c2nc(-c3cc4ccccc4oc3=O)cs2)C(c2ccco2)c2c(c3ccccc3oc2=O)O1 (configuration not stated),> 150 µg/mL,> 150 µg/mL
Cc1ccc(S(=O)(=O)C2=c3ncccc3=C3C(=O)c4ccccc4C(=O)C32)cc1 (configuration not stated),> 100 µM,
CC1CC(=O)C(C(O)CC2CC(=O)N(c3ccccc3)C(=O)C2)C(C)C1 (configuration not stated),> 100 µM,
Cc1oc2c(c1C(=O)c1ccccc1)C(=O)c1ccccc1C2=O,30.7 µM,

# — PubChem BioAssay (NCI)
